The values that follow come from paper PMC4336329 (PLoS ONE, 2015).

About 2,200 (0.71%) of roughly 310,000 compounds showed an effect of 50% or more. Effects have a minus sign here. This is one part of the list.

Chain of human ether-à-go-go-related gene (hERG) potassium channel (Q12809 whole entry, looked up): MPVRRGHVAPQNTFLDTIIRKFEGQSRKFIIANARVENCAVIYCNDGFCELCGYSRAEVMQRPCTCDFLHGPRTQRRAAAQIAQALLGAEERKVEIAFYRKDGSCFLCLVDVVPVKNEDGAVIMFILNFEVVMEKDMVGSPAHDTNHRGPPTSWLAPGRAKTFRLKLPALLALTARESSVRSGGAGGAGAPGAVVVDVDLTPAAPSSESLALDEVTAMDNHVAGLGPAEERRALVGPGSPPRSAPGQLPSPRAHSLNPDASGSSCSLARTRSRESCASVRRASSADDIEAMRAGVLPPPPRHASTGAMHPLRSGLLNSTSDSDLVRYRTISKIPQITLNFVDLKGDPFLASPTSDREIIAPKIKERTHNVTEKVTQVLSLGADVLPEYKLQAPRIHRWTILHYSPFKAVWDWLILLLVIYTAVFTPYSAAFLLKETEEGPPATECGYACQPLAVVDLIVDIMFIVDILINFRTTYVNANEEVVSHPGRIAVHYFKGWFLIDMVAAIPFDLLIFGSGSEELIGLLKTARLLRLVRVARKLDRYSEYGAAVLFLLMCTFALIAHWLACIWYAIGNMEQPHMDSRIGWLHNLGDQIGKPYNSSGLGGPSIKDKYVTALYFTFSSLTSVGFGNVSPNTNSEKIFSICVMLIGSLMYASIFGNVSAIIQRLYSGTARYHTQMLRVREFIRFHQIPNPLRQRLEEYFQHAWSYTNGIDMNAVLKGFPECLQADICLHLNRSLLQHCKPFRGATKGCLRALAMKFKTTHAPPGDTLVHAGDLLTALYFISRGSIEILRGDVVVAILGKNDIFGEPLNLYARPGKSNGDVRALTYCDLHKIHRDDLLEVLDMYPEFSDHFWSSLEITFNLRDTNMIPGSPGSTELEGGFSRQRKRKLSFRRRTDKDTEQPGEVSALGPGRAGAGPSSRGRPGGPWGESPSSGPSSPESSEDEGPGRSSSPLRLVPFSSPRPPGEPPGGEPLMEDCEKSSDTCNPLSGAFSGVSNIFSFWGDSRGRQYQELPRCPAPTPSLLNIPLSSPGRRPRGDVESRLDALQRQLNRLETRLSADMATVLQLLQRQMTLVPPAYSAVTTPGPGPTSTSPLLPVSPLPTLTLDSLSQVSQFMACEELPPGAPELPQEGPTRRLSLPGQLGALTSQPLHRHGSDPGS

The test concerns the target human ether-à-go-go-related gene (hERG) potassium channel (human, UniProt Q12809). Put plainly: primary screen, population patch clamp on CHO cells stably expressing hERG.
Consider `Cc1ccc(N(CC(=O)NCc2ccccc2)C(=O)CCC(=O)Nc2ccccn2)cc1C`, for which the “hERG current change (%, negative = inhibition) at 1uM” value came to 8.4%.
For the molecule `CCOc1cccc(OCCOCCN(C)Cc2ccccc2)c1`, the “hERG current change (%, negative = inhibition) at 1uM” value is given as -6.68%.
On to `COc1cccc(O)c1CN1CCC(n2nccc2NC(=O)c2ccc3c(c2)OCO3)CC1`, for which the “hERG current change (%, negative = inhibition) at 1uM” value was determined as 5.08%.
The result for `CC(=O)c1sc2nc(-c3cccs3)cc(C(F)(F)F)c2c1N` reads 11.6%; that for `Cl.NC(c1ccccc1)c1ccncc1` (centres unmarked), 15.2%.
The result for `Cc1cn2c(=O)c(C(=O)N3CCN(c4ccccc4F)CC3)cnc2s1` reads 3.8%; that for `CCCn1c(C)cc(/C=C(\C#N)C(=O)OCC(=O)Nc2ccc(OC)c(Cl)c2)c1C`, 5.72%; that for `CCCC(=O)Nc1ccc(C(=O)NCCc2ccc(F)cc2)cc1`, 23%.
The result for `CC(C)NC(=O)/C(=C/c1ccco1)c1ccccc1` reads 3.25%.
Turning to `CCCCN1C(=O)C(=O)N(CC(=O)c2ccc3c(c2)OCO3)C1=O`, the “hERG current change (%, negative = inhibition) at 1uM” value is given as 3.01%.
Regarding `Cc1nc2scc(C)n2c(=O)c1S(=O)(=O)NCc1ccccc1Cl`, the “hERG current change (%, negative = inhibition) at 1uM” value stood at 14.3%.
With `CCc1ccc2c(c1)c(N=NC1=NC(=O)CS1)c(O)n2CC`, the “hERG current change (%, negative = inhibition) at 1uM” value amounted to 7.81%.
The result for `CSc1nnc(C(C)c2ncc(C(F)(F)F)cc2Cl)n1C` (centres unmarked) reads 6.41%.
Take `Cc1c(C(=O)N2CCCC2)c(S(=O)(=O)N2CCN(c3ccccc3F)CC2)c(C)n1C`: the “hERG current change (%, negative = inhibition) at 1uM” value is 6.82%.
The result for `O=C1[C@H]2[C@@H](C3CC3)N3C(=O)CN(Cc4ccccn4)C(=O)[C@@]3(Cc3ccccc3)[C@H]2C(=O)N1c1ccccc1` reads 8.26%; that for `COC(=O)C1=Nc2ccccc2/C1=C\c1c(O)n(C)c(=O)n(C)c1=O`, 16.1%.
The result for `Cc1onc(-c2ccccc2)c1C(=O)Nc1ccc2c(c1)OCO2` reads 6.81%.
The figure for `O=C(CNC(=O)c1ccc(Cl)cc1)Nc1ccc(S(=O)(=O)Nc2ncccn2)cc1` is 7.99%.
Consider `CN(Cc1cc(=O)n2ccsc2n1)c1ccccc1`, for which the “hERG current change (%, negative = inhibition) at 1uM” value was 4.71%.
The figure for `Cc1ccc(-c2cc(C(=O)OCC(=O)Nc3cc(C)on3)c3ccccc3n2)c(C)c1` is 12.5%.
On to `Cc1cccn2c(=O)c(/C=C(\C#N)C(=O)NC3CCS(=O)(=O)C3)c(N3CC(C)OC(C)C3)nc12` (centres unmarked), for which the “hERG current change (%, negative = inhibition) at 1uM” value is 15.5%.
As to `CCc1ccc(N2CC(C(=O)Nc3ccc(S(=O)(=O)N4CCOCC4)cc3)CC2=O)cc1` (centres unmarked), the “hERG current change (%, negative = inhibition) at 1uM” value is recorded as 8.69%.
For the molecule `O=C(NC1CCCCC1)c1cc(-c2ccccc2O)on1`, the “hERG current change (%, negative = inhibition) at 1uM” value worked out at 10.8%.
Consider `CCN(CC(=O)N1CCC(C)CC1)S(=O)(=O)c1ccc(C)cc1`, for which the “hERG current change (%, negative = inhibition) at 1uM” value is -9.4%.
On to `CCCC(=O)O[C@]1(C(=O)CCl)[C@@H](C)C[C@H]2[C@@H]3CCC4=CC(=O)C=C[C@]4(C)[C@@]3(F)C(=O)C[C@@]21C`, for which the “hERG current change (%, negative = inhibition) at 1uM” value was 1.36%.
For the molecule `O=C(OCCCN=C1NS(=O)(=O)c2ccccc21)c1ccccc1`, the “hERG current change (%, negative = inhibition) at 1uM” value turned out to be 8.41%.
Turning to `CC(C)CN(C(=O)Cn1c(Cl)nc2c1c(=O)n(C)c(=O)n2C)C1CCS(=O)(=O)C1` (centres unmarked), the “hERG current change (%, negative = inhibition) at 1uM” value is on record as -7.41%.
The result for `CCc1nnc(NC(=O)CSc2nc3c(c(=O)n2-c2ccccc2OC)SCC3)s1` reads 12.5%.
The figure for `Cc1cccc(OCCn2c(-c3ccco3)nc3ccccc32)c1` is 28.5%.
The figure for `CCCNC(=O)c1cccc(NC(=O)C(C)C)c1` is -6.34%; for `NC1=NN=C(N2N=C(c3ccccc3)CC2(O)C(F)(F)F)n2ncnc2C1` (centres unmarked) it is 10.8%.
With `Cc1ccccc1NC(=O)CCc1c(C)nn(-c2ccc(N3CCCCC3)nn2)c1C`, the “hERG current change (%, negative = inhibition) at 1uM” value was 0.987%.
The result for `CC1(C)CC(=O)C2=C(C1)OC1=C(C2)C(=O)CC(C)(C)C1` reads 9.08%.
`Clc1ccc(CSc2ncn[nH]2)cc1`: the “hERG current change (%, negative = inhibition) at 1uM” value stood at 0.531%.
For `Cc1ccccc1C(=O)c1cccn1CC(=O)NCCCN1CC(C)CC(C)C1` (centres unmarked), the “hERG current change (%, negative = inhibition) at 1uM” value is on record as -59%.
For the molecule `Cc1ccc(-c2nc3ccccc3c(=O)n2CCCn2ccnc2)cc1`, the “hERG current change (%, negative = inhibition) at 1uM” value is recorded as -16.2%.
The result for `CCC(NS(=O)(=O)c1ccc(OC)cc1)C(=O)O` (centres unmarked) reads -4.23%; that for `CCOC(=O)Cn1c(CCC(=O)O)ccc1-c1ccc(F)cc1`, 12.6%; that for `Cc1ccnc(NC(=O)CS(=O)(=O)Cc2ccccc2)c1`, 6.54%.
Regarding `O=C(CCc1nc2ccccc2c(=O)[nH]1)Nc1nnc(SCc2ccc(Cl)cc2)s1`, the “hERG current change (%, negative = inhibition) at 1uM” value is 14.7%.
The result for `O=C(Nc1nc(-c2ccc(Br)cc2)cs1)c1cccnc1` reads 6.29%; that for `CCOC(=O)[C@H]1[C@H]2COc3ccccc3[C@@H]2N2C(=O)c3cc(F)ccc3NC(=O)[C@@]12C`, 5.9%.
For `COc1ccc(F)cc1C(=O)C1CCCN(Cc2ccc(Sc3nncn3C)o2)C1` (centres unmarked), the “hERG current change (%, negative = inhibition) at 1uM” value was determined as 17.4%.
Consider `CNS(=O)(=O)c1ccc(N2CCCC2)c([N+](=O)[O-])c1`, for which the “hERG current change (%, negative = inhibition) at 1uM” value worked out at 9.46%.
The figure for `Cc1noc(C)c1COC(=O)c1ccc(F)c(S(=O)(=O)N2CCCCC2)c1` is -0.643%; for `O=C1/C(=C/c2ccccn2)SC(=S)N1N1CCOCC1` it is 4.2%; for `Cc1ccc(-c2nc(SCC(=O)Nc3cc(C)on3)c3c(=O)n(C)c(=O)n(C)c3n2)cc1` it is 14.5%.
The result for `O=C1CCC/C1=C/Nc1cccc(F)c1` reads 15%; that for `CCOC(=O)CCSc1cc(C)c2ccccc2n1`, 10.4%; that for `CC(=O)N(c1ccccc1)C1CCCC1`, 8.96%.
With `Cc1ccc(C#CC(C)(O)C(C)(C)C)cn1` (centres unmarked), the “hERG current change (%, negative = inhibition) at 1uM” value was 11.3%.
Turning to `CC(C)(C)c1nc(Sc2ccc([N+](=O)[O-])cn2)n[nH]1`, the “hERG current change (%, negative = inhibition) at 1uM” value is on record as 14.8%.
For `COc1ccc(Cl)cc1-n1c(C)cc(C=O)c1C`, the “hERG current change (%, negative = inhibition) at 1uM” value came to 3.79%.
For `C=C(C)COc1ccc(-c2nc(N)ncc2-c2ccccc2OC)c(O)c1`, the “hERG current change (%, negative = inhibition) at 1uM” value is reported as -0.777%.
The figure for `Cc1cc([N+](=O)[O-])ccc1NC(=O)C(C)[n+]1ccccc1.[Br-]` (centres unmarked) is 18.1%.
Regarding `COc1ccc(C(=O)/C=C/Nc2ccc(C)cn2)cc1OC`, the “hERG current change (%, negative = inhibition) at 1uM” value is listed as 11.9%.
As to `CC(=O)N1CCN(c2ccc(NC(=O)c3cccc(OCc4ccccc4)c3)cc2)CC1`, the “hERG current change (%, negative = inhibition) at 1uM” value is 10.2%.
For the molecule `COC(=O)c1cc(CNC(=O)c2ccccc2Cl)ccc1OC`, the “hERG current change (%, negative = inhibition) at 1uM” value stood at 5.03%.
The figure for `CCCCOc1ccc(N(CC(=O)NC2CCCCC2)C(=O)c2snc(C(N)=O)c2N)cc1` is 8.41%; for `CC(C)c1ccc(CNCCCSc2ncccn2)cc1.Cl` it is 0.294%.
Turning to `O=C(CCOc1ccccc1)N1CCN(S(=O)(=O)c2cccs2)CC1`, the “hERG current change (%, negative = inhibition) at 1uM” value was 1.47%.
The figure for `CCCCn1c(SCC(=O)N2CCCCC2C)nc2cc(S(N)(=O)=O)ccc21` (centres unmarked) is 2.56%; for `O=C(CSc1nccc(=O)[nH]1)Nc1cc(C(F)(F)F)ccc1N1CCOCC1` it is 11.9%; for `Cc1ccc(CNC(=O)c2cc3c(C)nc4ccccc4c3o2)cc1` it is 12.9%.
The figure for `CCCCC(=O)Nc1nc2c(s1)COc1ccccc1-2` is 11%; for `CCOc1ccccc1NC(=O)C1=C(C)NC(=S)NC1c1cccs1` (centres unmarked) it is 6.54%; for `CCN(CC(=O)Nc1ccc(S(=O)(=O)N2CCCC2)cc1)Cc1ccccc1` it is 10.9%.
For `Cc1nnc(NC2=NCCC2)s1`, the “hERG current change (%, negative = inhibition) at 1uM” value was determined as 9.99%.
The result for `Cc1onc(-c2ccccc2Cl)c1C(=O)Nc1cccc(-c2cn3cccnc3n2)c1` reads 0.225%.
Consider `Cc1ccc(C)c(NC(=O)COC(=O)Cn2c(C)csc2=O)c1`, for which the “hERG current change (%, negative = inhibition) at 1uM” value worked out at 18.5%.
The figure for `COc1cccc(NC(=S)NCc2ccncc2)c1` is 4.92%; for `O=C(NC1CCCCC1)NC1CC2CCC(C1)N2Cc1nnnn1Cc1ccc2c(c1)OCO2` (centres unmarked) it is -1.53%; for `COc1ccccc1NS(=O)(=O)c1ccc2oc(SC(C)C(=O)N3CCNC3=O)nc2c1` (centres unmarked) it is 0.24%.
The figure for `CCOc1ccc(C(=O)Nc2cccc(C(=O)O)c2C)cc1Cl` is 20.3%; for `Cc1nnc(SCC(=O)NCC2CCCCC2)n(N)c1=O` it is 9.69%; for `Cc1[nH]c2ccccc2c1C(=O)CSc1ccc(F)cc1` it is 12.9%.
For `c1ccc(CCn2nnnc2C(c2cccnc2)N2CCN(c3ccccc3)CC2)cc1` (centres unmarked), the “hERG current change (%, negative = inhibition) at 1uM” value is reported as -17.8%.
The result for `COc1cc(NC(=O)c2ccccc2)c(OC)cc1NC(=O)CN1C(=O)NC2(CCCCC2)C1=O` reads 6.21%.
The figure for `COc1ccc(Cl)cc1NC(=O)CN(C1CCCCC1)S(C)(=O)=O` is -7.42%; for `O=C(CN(C(=O)CNC(=O)c1cccs1)c1ccccc1)NC1CCCCC1` it is 18.3%.
The result for `O=C(N/N=C/c1c(O)n(Cc2ccccc2)c(=O)[nH]c1=O)c1ccccc1` reads 15.2%; that for `COc1ccc(OC)c(/C=N/NC(=O)c2ccc(N(C)S(=O)(=O)c3ccccc3)cc2)c1`, 5.62%.
In the case of `C[Se]C[C@@H](N)C(=O)O.Cl`, the “hERG current change (%, negative = inhibition) at 1uM” value is given as 9.97%.
The result for `COCCCNC(=O)CCn1nc(-c2ccc(Cl)cc2)ccc1=O` reads 1.48%; that for `CC(=O)c1c(C)[nH]c(C(=O)OCC(=O)Nc2ccc(Cl)cc2[N+](=O)[O-])c1C`, -0.254%; that for `COC(=O)C1=C(c2ccccc2)C[C@@H]2CC[C@H]1N2C(=O)NCCNC(C)=O`, 9.59%.
The result for `CC(C)c1nc(SCC(=O)NC(=O)NC(C)(C)C)n[nH]1` reads 3.39%; that for `Cc1c(Cl)cccc1NC(=O)CCN1CCCC(C)C1` (centres unmarked), 2.32%.
As for `CSc1ccccc1C(=O)C1CCCN(Cc2cnn(-c3ccccc3)c2)C1` (centres unmarked), the “hERG current change (%, negative = inhibition) at 1uM” value is given as -10.7%.
